Measured values reported in PubChem BioAssay AID686979 (National Center for Advancing Translational Sciences (NCATS), 2013).
The whole screen tested about 420,000 compounds, of which about 50,000 (12%) were called active. The inconclusive results got no clear call from the source; some entries with a clear call stand among them for comparison. Calls come from the whole dose curve; as a rule, active = well fitted inhibition curve with a large enough effect; inconclusive = small, poorly fitted or top-dose-only effect; inactive = flat fitted curve, though single readings scatter. No potency is given beside an inconclusive call; the fits are too rough.

assay: qHTS for Inhibitors of human tyrosyl-DNA phosphodiesterase 1 (TDP1): qHTS in cells in presence of CPT; conditions: chicken DT40 Tdp1-/-;hTDP1 cells + 20 nM CPT, ATP luminescence, 48 h; activity change, negative = growth inhibition: at 46.2 µM (top of the series); note: nearly all actives have a fitted effect of over 55% in size
Outline: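 Cell growth measured by CellTiter-Glo luminescence after a minimum 48 h, 37 C compound exposure with 20 nM CPT in Tdp1-knockout DT40 cells stably expressing hTDP1, seeded 400/well; qHTS titration format.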
% is set by controls: 0 for no effect and ±100 for the full control effect; potency is the fitted concentration of half-maximal effect; tags give direction and shape of the fitted curve.

| Structure (SMILES) | Potency | activity change, negative = growth inhibition |
| --- | --- | --- |
| CC[C@H]1c2[nH]c3ccccc3c2C[C@@H]2C(=O)N(c3ccc(F)cc3)C(=O)N21 | active: 16.4 µM |  |
| COc1ccc(NC(=O)CC2C(=O)N(c3cccc(OC)c3)C(=O)N2CCc2cccs2)cc1 (stereo not drawn) | inconclusive [inhibitor, single point] |  |
| Cc1ccc(OCC(=O)Nc2ccccc2C(=O)NC2CC2)cc1C | inconclusive [inhibitor, single point] |  |
| O=C(NCc1ccccc1C(F)(F)F)c1cccc2c1C(=O)c1ccc(N3CCC(N4CCCCC4)CC3)cc1S2(=O)=O | active: 2.31 µM |  |
| CCOC(=O)c1c(C(=O)OCC)c(C)n(CCc2ccccc2)c1C | inconclusive [inhibitor, single point] |  |
| O=C(COc1ccccc1F)Nc1ccc2nc(SCCOc3ccccc3)sc2c1 |  | inconclusive: -35.2% [inhibitor] |
| Cc1ccc(N(C(=O)CNC(=O)c2ccco2)C(C(=O)NC2CCCCC2)c2ccncc2)c(C)c1 (stereo not drawn) | inactive |  |
| NC(=O)C(OC(=O)CNC(=O)C1CCCCC1)c1ccccc1 (stereo not drawn) | inactive |  |
| Cc1c(C(=O)OCC(=O)Nc2ccc(C(=O)N(C)C)cc2)oc2ccccc12 | inactive |  |
| CC(C)c1ccc(CN(C(=O)c2cccs2)C2CCS(=O)(=O)C2)cc1 (stereo not drawn) |  | inconclusive: -33.8% [inhibitor] |
| CCOC(=O)c1c(C)[nH]c(C(=O)CN2C(=O)NC(C)(c3ccc(C)cc3)C2=O)c1C (stereo not drawn) | inconclusive [inhibitor, single point] |  |
| CC(OC(=O)C1=COCCO1)C(=O)NC1(C#N)CCCCC1 (stereo not drawn) | inactive |  |
| CCCOc1ccc(C(=O)Nc2ccc3oc(-c4ccncc4)nc3c2)cc1 |  | inconclusive: -22.5% [inhibitor] |
| CCCCN(CC)CCCNC(=O)CS(=O)(=O)Cc1nc(-c2ccc(C)cc2)oc1C | inconclusive [inhibitor, single point] |  |
| COc1cc(NC(=O)COc2cc3oc(=O)cc(C)c3cc2Cl)cc(OC)c1OC | active: 8.2 µM |  |
| FC(F)(F)c1cccc(NC(=S)NCc2ccccn2)c1 | inactive |  |
| CCOc1ccc(CCNC(=O)C2CCN(C(=O)N3CC(CC)Oc4ccccc43)CC2)cc1 (stereo not drawn) | active: 14.6 µM |  |
| COc1ccccc1NC(=O)c1ccc(CSc2ccccc2)o1 | inconclusive [inhibitor, partial curve] |  |
| Cc1ccccc1-c1noc(-c2ccc(N3CCCCC3)c([N+](=O)[O-])c2)n1 |  | inconclusive: -30.5% [inhibitor] |
| COc1cc(NC(=O)CSc2nnc(C)n3c2cc2oc(C)cc23)cc(OC)c1 | inconclusive [inhibitor, single point] |  |
| CC(C)C[C@@H](CSc1ccc(Br)cc1)N1CCN(C)CCC1=O | inconclusive [inhibitor, single point] |  |
| O=Cc1c[nH]c2ccc(C(=O)c3ccccc3)cc12 | inconclusive [inhibitor, single point] |  |
| COc1ccc(N2CCN(C(=O)c3ccccc3Br)CC2)c([N+](=O)[O-])c1 | inconclusive [inhibitor, single point] |  |

| Structure (SMILES) | Potency | activity change, negative = growth inhibition |
| --- | --- | --- |
| COc1ccsc1C(=O)N1CCN(Cc2ccc3c(c2)OCO3)CC1 | inactive |  |
| O=C(C[n+]1cc(-c2ccc(Cl)cc2)n2c1CCC2)N1c2ccccc2Sc2ccccc21 | active: 9.2 µM |  |
| CCOC(=O)CC1c2nc3ccccc3cc2CN1C(=O)OCC (stereo not drawn) | inconclusive [inhibitor, single point] |  |
| CCOc1ccc(NC(=O)C(=O)NCCN2CCN(S(=O)(=O)c3ccc(C)cc3)CC2)cc1 | inconclusive [inhibitor, single point] |  |
| CCOc1cc(/C=N/NC(N)=O)cc(Br)c1OCc1ccccc1 | inconclusive [inhibitor, single point] |  |
| Cc1ccc(C)c(S(=O)(=O)Nc2ccc(-n3cnnn3)cc2)c1 | inconclusive [inhibitor, single point] |  |
| CCOCCCN(Cc1ccco1)S(=O)(=O)c1cc2c(cc1Cl)NC(=O)CO2 | inconclusive [inhibitor, single point] |  |
| O=C(NCc1ccc(Cl)cc1)c1cnc2sc(N3CCOCC3)nn2c1=O | inconclusive [inhibitor, full curve, poor fit] |  |
| Cc1cccc(NC(=O)N2CCC(c3nc4ccccc4o3)CC2)c1 | inactive |  |
| O=C(Cn1c(-c2ccccc2)c[n+]2ccsc12)c1ccc([N+](=O)[O-])cc1 | active: 23.1 µM |  |
| O=C(Oc1ccc(N(C(=O)c2ccncc2)S(=O)(=O)c2ccc(Cl)cc2)cc1)c1ccncc1 | inconclusive [inhibitor, single point] |  |
| CC(C)=CC(=O)N1CCCC(N2CCN(c3ccccc3C)CC2)C1 (stereo not drawn) | inactive |  |
| CCCCN(CCO)CCCC | inactive |  |
| CN(C)CCN1C(=O)c2oc3ccc(Cl)cc3c(=O)c2C1c1cccc(Br)c1 (stereo not drawn) | inconclusive [inhibitor, single point] |  |
| COc1cccc(CNC(=O)CCS(=O)(=O)c2ccc3c(c2)oc(=O)n3C)c1 | inactive |  |
| COc1ccc(OCCN2CCN(S(=O)(=O)c3ccccc3C#N)CC2)cc1 | inconclusive [inhibitor, single point] |  |
| COCCCNC(=O)c1c(NC(=O)Cc2coc3c(C)c(C)ccc23)sc2c1CCCC2 | active: 16.4 µM |  |
| Cn1nnc2c(N3CCN(c4cccc(Cl)c4)CC3)ncnc21 | inconclusive [inhibitor, full curve] |  |
| COc1ccc(Cl)c2sc(N3CCN(C(=O)C4=COCCO4)CC3)nc12 | inconclusive [inhibitor, single point] |  |
| CC(NS(=O)(=O)c1cccc(S(=O)(=O)c2ccccc2)c1)C(=O)O (stereo not drawn) | inconclusive [inhibitor, single point] |  |
| O=C(c1cc2ccccc2oc1=O)N(c1ccc(Cl)cc1)C1C=CS(=O)(=O)C1 (stereo not drawn) | active: 16.4 µM |  |
| CCOC(=O)N1CCN(Cc2nc3c(c(=O)n(C)c(=O)n3C)n2Cc2cccc3ccccc23)CC1 | active: 23.1 µM |  |
| COCCN(Cc1cccs1)S(=O)(=O)c1cc(-c2cc(C)no2)ccc1C | inconclusive [inhibitor, single point] |  |

| Structure (SMILES) | Potency | activity change, negative = growth inhibition |
| --- | --- | --- |
| CCc1cccc2sc(N3CCN(C(=O)c4ccc([N+](=O)[O-])o4)CC3)nc12 | inconclusive [inhibitor, single point] |  |
| O=C(c1cc2cc(F)ccc2[nH]1)N1CCN(C(=O)c2ccco2)CC1 | inconclusive [inhibitor, single point] |  |
| O=C(c1ccc(Cl)c(S(=O)(=O)N2CCCCC2)c1)N1CCN(c2ccccc2)CC1 | active: 23.1 µM |  |
| CCOC(=O)/C=C1/SCC(=O)N1CC(=O)NC12CC3CC(CC(C3)C1)C2 | inconclusive [inhibitor, partial curve, poor fit] |  |
| CCCNC(=O)CN1C(=O)NC(CC)(c2ccc(F)cc2)C1=O (stereo not drawn) | inactive |  |
| CC(Oc1ccc(F)cc1)C(=O)Nc1sc2c(c1C(=O)NCc1cccnc1)CCCC2 (stereo not drawn) | inconclusive [inhibitor, partial curve] |  |
| Fc1ccc(Nc2ccc3ccccc3n2)c(F)c1 | inactive |  |
| CCCCC(=O)Nc1cccc(NC(=O)c2cccc([N+](=O)[O-])c2)c1 | inconclusive [inhibitor, single point] |  |
| O=C(c1cc(-c2ccc(Cl)cc2)n(-c2ccc(Cl)c(Cl)c2)n1)N1CCOCC1 | inconclusive [inhibitor, single point] |  |
| O=C(NCCCN1CCOCC1)c1ccc(NS(=O)(=O)c2cccc([N+](=O)[O-])c2)cc1 | inactive |  |
| CC(C)CC1C(=O)N(Cc2cn(Cc3ccco3)nn2)CCS(=O)(=O)N1Cc1ccc(-c2cccc(CO)c2)cc1 (stereo not drawn) | inconclusive [inhibitor, single point] |  |
| CCCCOC(=O)c1c(N)n(-c2ccc(OC)cc2OC)c2nc3ccccc3nc12 | active: 11.6 µM |  |
| COC(=O)C1C(C(C)C)N(c2ccccc2)OC1(C)O (stereo not drawn) | inconclusive [inhibitor, single point] |  |
| CCC(Sc1nnc2c(n1)[nH]c1ccccc12)C(=O)Nc1nnc(C(C)C)s1 (stereo not drawn) | inconclusive [inhibitor, single point] |  |
| COc1ccc([C@H]2CC(=O)C=C(c3cccc(CO)c3)C2)cc1OC | inconclusive [inhibitor, single point] |  |
| CN(CC(=O)Nc1ccc(Cl)c(C(F)(F)F)c1)C(=O)CC1Sc2ccccc2NC1=O (stereo not drawn) | active: 13 µM |  |
| Cc1ccc(C)c(CN2CCC(n3nccc3NC(=O)CCCc3ccccc3)CC2)c1 | inconclusive [inhibitor, single point] |  |
| O=Nc1c(-c2c(O)[nH]c3ccccc23)[nH]c2ccccc12 | inconclusive [inhibitor, single point] |  |
| COc1cc(Br)c(-c2sc(Nc3ccccc3)n[n+]2-c2ccccc2)cc1OC | inconclusive [inhibitor, single point] |  |
| O=C(NCC(=O)N1CCN(c2ccccc2O)CC1)C1CCCCC1 | active: 3.66 µM |  |
| COc1ccc(C(=O)CSC2=C(C#N)C3(CCCCC3)C(C#N)=C(N)N2)cc1 | inconclusive [inhibitor, partial curve, poor fit] |  |
| Cc1ccc(C(=O)c2cc(O)c(O)c([N+](=O)[O-])c2)cc1 | inconclusive [inhibitor, single point] |  |
